The RNAGym collection of RNA variant scans (doi:10.7554/elife.90254)
Read counts are not given, so values of variants with three or more changes are uncertain.

B1: LINE1-mini (parent)
chain: GGCAGAGCUCAACACAGCGUGGCAAAGUGGCUGUGGCUAGACUGCC

Variants of: B1
Experiment: self-cleavage, relative activity (ratio to wild type); higher = more cleavage; in vitro, sequencing; the parent is a self-cleaving ribozyme

Variant	self-cleavage
G2A A4U C15G	0.02
G2A A4U A11C A24U U32A G35C A41C	0.02
G1U G7C A24U A25G G36U U38C G40U U43A	0.06
G1U G2C C3U A12U A39C	0.13
G1U U9C C18A U34G G36A	0.01
G2A A14U C31U U32C U43A	0.17
G2A C8G A41U	0.09
G1U G33U G35A	0.03
G1U U20G C31U U32G	0.02
G1U C23A U28A G44C	0.27
G2A C13U A24U A26G	0.35
G1U G7U G27C A39U U43C	0.01
G1U G22C A24G	0.16
G2A C10A G19U G30A U38G C42A	0.02
G2A A6C C15G G22U U34A	0.01
G2A A24C A26C	0.3
G2A C18G C23G U34C	0.07
G2A A11U G19C	0.05
G1U C37A C42A	0.06
G2A C13G G17C G19U G44U	0.05
G2A C8A A16C G22U	0.99
G2A A12G G36C	0.08
G2A C18U A39G	0.11
G2A C3G C18A U32C G44U	0.07

Variant	self-cleavage
G2A C3G A4C U38C	0.27
G1U G27U U28C G29A C45G	0.12
G1U G19A G44U	0.25
G1U C31G U32G	0.05
G2A C18G G22C C31U G44A	0.08
G2A A11U G40C	0.06
G2A C13A G36A	2.51
G2A G5U A25G G29U A41G	0.24
G1U C18U G19A C37A G44U	0.25
G2A A4G C46A	0.24
G1U G5U C23A C31U C37G C42U	0.01
G2A C23A G29A C37U C46A	0.04
G1U G29U G40U C46A	0.03
G1U G30C U34C	0.02
G1U U9G U20C C23U G30U U32A	0.02
G2A C8U A14G G30C G36C	0.13
G2A A11C A12U C13A C15U C23A G29U C31G	0.01
G2A C13G G19A A39C	0.25
G2A C8G A26G G40A	0.01
G2A C3G C8A U32C U38G	0.58
G2A C23U A25C U43A	0.15
G2A C15A C23G G35C G44C	0
G1U C31G U38C	0.02
G1U C23U G27C G30C C45A	0.95

Variant	self-cleavage
G2A A4U G33A C42G U43C	0.04
G1U G7U G19A U28A U32A	0.05
G1U G7A C10A	0.01
G1U U34C G44A	0.02
G2A C15A A39C	0.14
G2A A12U C15G A39G	0.04
G2A A12G G17A C23A A39U	0.01
G1U G2U A11U	0.02
G1U U9A C31U	0.01
G2A A16G G27U C37G	0.38
G1U G5C C13A G22U A25G G35U	0.04
G2A C8U A12G A16C	0.08
G2A C10U G22A	0.21
G2A C10G A11G	0.02
G2A C8A C10G A11U A12U U20G G21C G40U	0.03
G2A C10U A24U G36U	0.06
G1U U32C C46A	0.07
G1U U9A A11U G21A A26U	0.03
G1U U28C G29A	0.03
G1U G7A A39G	0.12
G1U G5U C8U	0.23
G2A C3U G7A G21U	0.44
G1U C31G A39G	0.02
G2A C13G C31A	0.26

Variant	self-cleavage
G1U G17U G22A	0.06
G1U U9G G27C G36C	0.23
G2A C15U C45U	0.64
G1U G2C U9A C10G	0
G1U G17U C18G	0.11
G2A A12U G33A U38C	0.05
G1U G5C A24U A39U	0.16
G1U U9G C15A G35U C45G	0
G1U G5A A6U C8U A12U G40U C46A	0.06
G1U G2U C45A	0.27
G1U U9A U43C	0.03
G2A A4U A6C C15U G36C	0.1
G2A G5A G36C U38A A39C	1.24
G1U G7C G27U G30U G44C	0.11
G2A C8A C10A G21C G36A G44C	0.05
G2A C3A C8U U9G G27C	0.91
G1U G7U A26G	0.19
G1U U34A G35U	0.02
G1U G17A G33U	0
G1U G17A G33A	0.01
G1U G19U G33C	0.05
G2A C10G C31G	0.01
G2A C3A C18U C23U A26U U34C G35C A41C	0.14
G2A C3U G44U	2.5

Variant	self-cleavage
G1U G5C A25G	0.04
G1U G27A C31G	0.07
G1U U9A C10A U34G	0.01
G2A A4U A14U A26U G36A U38C G40A C45U	0.06
G1U C23G C45U	0.35
G1U G2A A12G	0.03
G2A A12G C13G U20C C37G C45G	0.03
G1U U20A C23A A41C C42G C46G	0.03
G1U U9A C42A	0.02
G2A A12G A16G C37G	0.18
G2A C10A C31A	0.05
G1U G5U U38G	0
G2A A11U G19A G27A C45A	0.09
G2A C15A U38A	0.17
G1U G2A C10U G22A	0.12
G2A A16U G22A C42G C46A	0.17
G2A C3U G5C U9A G30U	0.11
G1U G19C C37G C42A U43C	0.01
G2A A4C A6C A14U A16C G35C C45U	0.07
G1U G27C G29C U34G C42U C46U	0.13
G1U U38C A41G	0.07
G1U U9C G44U	0.03
G1U G35C G36A	0.05
G1U G2A C3A U38C	1.48

Variant	self-cleavage
G2A A11G C31U C45U	0.02
G2A C8G G22A U34A	0.13
G2A C13U G36U	0.09
G1U G2A C13A C23G G44C	0.09
G1U G29U G35C A41C	0.02
G2A C3A G17U G27A U32G U34C U43A	0.82
G1U G2A U9C	0.02
G1U U9G C10U G19A G36U A41U	0.02
G1U G33U G36A	0
G1U C23G C31U A39G	0.02
G1U G2U A11U A14U A16G C42U C46A	0
G2A A6U C8A U34A	0.41
G2A G5A G19A G21U	0.47
G2A A16G G17C G21A G30C G40U	0.08
G2A G5C C42G	0.17
G2A A14G G22A A26G U43C	0.09
G1U G2A A4U A6U G19A G22U	0.77
G2A A14G U28A U43A G44U	0.08
G1U G30A C42G	0.04
G2A C8A G21C G27U U34A C45U C46G	0.11
G2A A4U A14C G17A U28A	0.17
G1U G21A G33U	0.06
G2A A11C A12G A41C	0
G2A A14G C18G C31G	0.05

Variant	self-cleavage
G2A C18U C46A	0.34
G1U U9C A16G A41G	0
G1U G5U A14G G36U U43A	0
G2A C3G G21U	0.92
G1U C31A A41U	0.02
G2A C10G G30U U34A	0.02
G2A A16G A39G	0.16
G2A G5U A25G A41C	0.08
G2A C3A C10G G22A	0.1
G2A C10G G33U C46G	0.04
G2A A6U U34A G36U A41C	0.04
G2A C3A C8A A16C C37A A39G	2.53
G1U U20G G27A G36A	0.09
G1U G2U C8A U32C U43A	0.01
G2A C8G C23U	0.09
G1U G5C U28G G30U G36C	0.02
G2A A6C A16G A24C	0.15
G2A A14C A24C G44A C46A	0.05
G2A C8A U34C	0.54
G2A G5U C10A C46A	0.03
G2A G5A U38A C46U	0.33
G2A C3U G19A C37U A39C C45A	0.68
G2A A6U C15A G22C C37G	0.09
